{"sequences": {"note": "Chains of the proteins cited; added tags and fusions are not shown.", "UniProt Q39057": "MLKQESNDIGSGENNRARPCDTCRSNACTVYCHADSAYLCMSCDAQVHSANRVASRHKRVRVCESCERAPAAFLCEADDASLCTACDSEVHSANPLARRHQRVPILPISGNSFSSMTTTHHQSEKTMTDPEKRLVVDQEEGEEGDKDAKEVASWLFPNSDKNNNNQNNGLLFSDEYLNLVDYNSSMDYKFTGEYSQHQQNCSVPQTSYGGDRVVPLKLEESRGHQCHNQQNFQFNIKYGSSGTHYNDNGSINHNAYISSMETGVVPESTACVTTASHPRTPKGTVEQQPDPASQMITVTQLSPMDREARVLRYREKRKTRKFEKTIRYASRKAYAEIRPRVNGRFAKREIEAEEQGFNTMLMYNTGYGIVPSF", "UniProt Q8LAZ7": "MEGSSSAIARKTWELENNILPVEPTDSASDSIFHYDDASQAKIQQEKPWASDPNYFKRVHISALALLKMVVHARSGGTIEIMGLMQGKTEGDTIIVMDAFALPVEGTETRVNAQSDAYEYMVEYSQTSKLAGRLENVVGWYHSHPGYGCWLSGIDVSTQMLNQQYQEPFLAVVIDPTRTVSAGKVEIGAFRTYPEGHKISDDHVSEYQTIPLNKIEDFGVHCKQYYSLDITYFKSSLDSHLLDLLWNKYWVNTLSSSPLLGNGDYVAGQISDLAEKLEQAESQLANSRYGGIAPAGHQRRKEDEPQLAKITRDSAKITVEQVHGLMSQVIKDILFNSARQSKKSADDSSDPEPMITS", "UniProt Q9SXZ2": "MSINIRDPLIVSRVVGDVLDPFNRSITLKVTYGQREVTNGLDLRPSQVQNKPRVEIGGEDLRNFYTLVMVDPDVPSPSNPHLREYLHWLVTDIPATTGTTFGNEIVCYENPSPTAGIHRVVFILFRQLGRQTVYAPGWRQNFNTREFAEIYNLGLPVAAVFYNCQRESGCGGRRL"}, "source": "paper PMC3903633", "note": "No constants are given. Whether binding was seen depends on the method and setting. In cells and extracts the contact can be indirect. Some results given as binding are weak or reduced against the parent protein; the word gives no strength. Where a sequence is shown, tags or fusion partners need not be part of it."}
{"target": "T1, PCC1 fused to the C-terminal or the N-terminal half of YFP (Arabidopsis thaliana) (UniProt Q94C26)", "T1 sequence": "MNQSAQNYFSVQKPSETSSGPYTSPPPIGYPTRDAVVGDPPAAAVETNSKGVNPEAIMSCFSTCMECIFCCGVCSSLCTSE", "experiment": "split reporter; BiFC: pairs of proteins each fused to half of YFP (pYFC43, pYFN43), transient co-transformation of Nicotiana benthamiana leaves by agroinfiltration; confocal microscopy"}
{"substance": "CONSTANS (CO) fused to half of YFP (from UniProt Q39057 1-373)", "binding": "no binding"}
{"substance": "CSN5A subunit of the COP9 signalosome fused to half of YFP (from UniProt Q8LAZ7 1-357)", "binding": "binds"}
{"substance": "FLOWERING LOCUS T (FT) fused to half of YFP (from UniProt Q9SXZ2 1-175)", "binding": "no binding"}
